Experimental data: the supplement of paper PMC11283458
Structures can show the parent of a compound that is named as a salt. Some of the results follow. Single values are uncertain, as repeats are few or missing.

Key:
[1] = test system: Mef2d microexon dual Nano/Firefly luciferase splicing reporter in Neuro-2a cells; assay: B-score of Firefly/Nano luminescence ratio, V1 Mef2d microexon reporter (B-score (plate-normalised)); higher = more Mef2d microexon inclusion; details: 24 h
[2] = test system: Mef2d microexon dual Nano/Firefly luciferase splicing reporter in Neuro-2a cells; assay: B-score of Nano/Firefly luminescence ratio, V2 Mef2d microexon reporter (B-score (plate-normalised)); higher = more Mef2d microexon inclusion; details: 24 h
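For B-score of Nano/Firefly luminescence ratio, V2 Mef2d microexon reporter in this document: compounds at 4 µM (PKI library 0.5 µM) on Dox-inducible N2A Flp-In cells with PEST-tagged luciferases, 384-well plates, B-score from per-plate median-polish residual over median absolute residual.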

Structure (SMILES)	B-score [1]	B-score [2]
COc1ccc(C(O)CCNC(CC(C)C)C(=O)O)cc1 (stereo not drawn) (4 µM)	-1.61	-4.82
CC(Oc1ccc(F)cc1F)C(=O)Nc1sccc1C(=O)Nc1ccc([N+](=O)[O-])cc1 (stereo not drawn) (4 µM)	-2.14	-2.75
COc1cc(Nc2ncc3c(n2)-c2ccc(Cl)cc2C(c2c(F)cccc2OC)=NC3)ccc1C(=O)O [MLN-8237, Alisertib] (0.5 µM)	-2.27	-4.54
N#Cc1c(O)nsc1Nc1ccccc1Cl (4 µM)	-3.04	-1.33
Cc1ccc(C(=O)C=CSc2nc(C)cc(C)n2)cc1 (4 µM)	-0.712	-6.23
Cc1ccc(NC(=O)Nc2cc(C(F)(F)F)ccc2F)cc1Nc1ccc2c(c1)NC(=O)/C2=C\c1ccc[nH]1 [Trk Inhibitor III, GNF-5837] (0.5 µM)	12	10.5
COc1cc(NC(=O)c2ccc([N+](=O)[O-])o2)cc(C(F)(F)F)c1 (4 µM)	1.94	3.28
CC(=O)Oc1cccc2c1C(=O)C=CC2=O (4 µM)	7.59	12.4
N#Cc1c(NC(=O)c2cccc3ccccc23)sc2c1CCCC2 (0.5 µM)	-6.13	-7.27
N#CC(C#N)=C1c2cc([N+](=O)[O-])ccc2-c2c(C(=O)N3CCCCC3)cc([N+](=O)[O-])cc21 (4 µM)	-1.35	-3.54
CC(C)(C)c1ccc(C(N)=NOC(=O)c2cnn(-c3ccc([N+](=O)[O-])cc3)c2C(F)(F)F)cc1 (4 µM)	5.75	2.84
CCCc1c(C(=O)ON=C(N)c2ccc(C(F)(F)F)cc2)cnn1-c1ccc(Cl)cc1 (4 µM)	12.8	2.73
O=C(Nc1noc2ccccc12)c1cc2c(s1)CCCC2 (4 µM)	-1.3	-2.54
O=C(NC[C@H](O)CO)c1ccncc1Nc1ccc(I)cc1F (0.5 µM)	5.67	5.05
COc1cccc2c1C(=O)c1c(O)c3c(c(O)c1C2=O)C[C@@](O)(C(C)=O)C[C@@H]3O[C@H]1C[C@H](N)[C@H](O)[C@H](C)O1 [Daunorubicin hydrochloride] (4 µM)	-18.8	-23.8
N#Cc1c(O)nsc1Nc1ccccc1C(F)(F)F (4 µM)	-1.35	-2.51
c1cc(-c2cnn3cc(-c4ccc(OCCN5CCCCC5)cc4)cnc23)ccn1 [Dorsomorphin dihydrochloride] (4 µM)	-10.7	-17.8

Structure (SMILES)	B-score [1]	B-score [2]
CN(C)C=Cc1ccnc(-c2cc(C=CN(C)C)ccn2)c1 (4 µM)	10.1	5.19
O=C(Nc1ccccc1)ON=C1CC2CCCC(C1)N2Cc1ccccc1 (4 µM)	14.4	6.57
O=S(=O)(NC(=S)Nc1ccc(Cl)c(Cl)c1)c1ccccc1 (4 µM)	2.27	9.04
N#CC(=NNc1ccc(Cl)cc1Cl)C(=O)c1ccc(Cl)cc1 (4 µM)	6.33	1.83
CC1(COc2ccc3c(c2)ncn3-c2ccc3cccc(N4CCC(N)CC4)c3n2)COC1 (0.5 µM)	14.3	11.9
N#Cc1c(-c2cccs2)oc(-n2cccc2)c1-c1cc(Br)cs1 (4 µM)	4.52	2.5
O=C1c2ccccc2S(=O)c2ccccc2S(=O)(=O)N1Cc1ccccc1 (stereo not drawn) (4 µM)	-2.78	-2.72
CCCCC1C(=O)N(c2ccccc2)N(c2ccc(O)cc2)C1=O (stereo not drawn) [Oxyphenbutazone] (4 µM)	-5.17	-4.44
CCCCCCOC(=O)c1cc([N+](=O)[O-])cc2c1-c1ccc([N+](=O)[O-])cc1C2=C(C#N)C#N (4 µM)	15.6	2.76
O=C(Nc1ccc(Cl)cc1)Nc1ccno1 (4 µM)	8.6	0.123
CCOC(=O)/C=C(\C)Sc1cc(=O)oc2ccccc12 (4 µM)	-1.41	-7.01
Cc1cc(Nc2cc(N3CCN(C)CC3)nc(/C=C/c3ccccc3)n2)n[nH]1 (0.5 µM)	6.26	2.81
CC1=NNC(=O)/C1=N\Nc1ccccc1C (4 µM)	0.674	11.6
O=S1(=O)CS(=O)(=O)Oc2ccccc2O1 (4 µM)	3.73	3.23
Cc1ccc(NC(=O)COC(=O)CCc2c[nH]c3ccccc23)cc1[N+](=O)[O-] (4 µM)	-17.8	-0.139
Nc1nccc(Oc2ccc(NC(=O)c3c[nH]cc(-c4ccc(F)cc4)c3=O)cc2F)c1Cl (0.5 µM)	10.7	10.7
Clc1ccc(N=Cc2c(-c3ccccc3)nc3n2CCS3)cc1 (4 µM)	3.97	1.32
